Patent US9433687B2, “Anti-Notch3 antibodies and antibody-drug conjugates” (Pfizer Inc., priority 2012, dated 2016)
Where “and” joins values, the source holds several entries; their conditions need not be identical. Identical values can stand only once.

B1: hu28-vc0101: hu28 conjugated to vc0101 linker-payload (conjugate)
heavy: EVQLVESGGGLVQPGGSLRLSCAASGFTFRDYGMTWVRQAPGKGLEWVAYISSGSNYIYYAEAVKGRFTISRDNAKNSLYLQMNSLRAEDTAVYYCARRGPFVLDAWGQGTLVTVSS[letters of human IgG1 constant region omitted]
light: DIQMTQSPSSLSASVGDRVTITCKASQSINRYLHWYQQKPGKAPKLLIYNANGLQTGVPSRFSGSGSGTDFTLTISSLQPEDFATYYCLQHNTWPDTFGGGTKVEIKRTVAAPSVFIFPPSDEQLKSGTASVVCLLNNFYPREAKVQWKVDNALQSGNSQESVTEQDSKDSTYSLSSTLTLSKADYEKHKVYACEVTHQGLSSPVTKSFNRGEC
B2: hu28-vc6780 (conjugate)
heavy: B1 heavy
light: B1 light

Assays:
HCC2429 (lung cancer) = assay: In vitro cytotoxicity (MTS), HCC2429; type: cell-based, human; conditions: Table 14; two individual repeats; LP = lacked potency
Description: (§1) The effects of anti-Notch3 ADCs were assessed on 1) cell lines endogenously expressing Notch3 protein: HCC2429 (lung cancer), OVCAR3 (ovarian cancer) and MDA-MB-468 (breast cancer), 2) cell lines engineered to over-express full length human Notch3 protein: MDA-MB-468/hNotch3 and U2OS/hNotch3, and 3) a negative control cell line (SW900) using an MTS cellular viability indicator (Promega, Madison, Wis.). These cell lines were cultured with increasing concentrations of anti-Notch3 ADCs comprising rat-human chimeric anti-Notch3 antibodies, ch28 and ch75, and humanized anti-Notch3 antibodies, hu28 and hu75, conjugated to various linker-payload combinations of the present invention. As a specificity control for the anti-Notch3-ADCs, non-targeted control-ADCs (huNeg8.8-ADCs or ch2H6-ADCs) were also tested on the same cell lines. After four days, viability of each culture was assessed. IC50 values were calculated by logistic non-linear regression, model #203 with XL fit v4.2 (IDBS, Guildford, Surry, UK) and presented as ng Ab/mL. The drug antibody ratio (DAR) is also provided.
This process generated the anti-Notch3 cysteine mutant ADCs: hu28-(L443C)-vc0101 and hu28-(L443C/κK183C)-vc0101. The activity of the anti-Notch3 cysteine mutant ADCs were assessed on cell lines endogenously expressing Notch3 protein: HCC2429 (lung cancer) and OVCAR3 (ovarian cancer) using an MTS cellular viability indicator as described in previous Examples.

U2OS/hNotch3 = target: T1, U2OS/hNotch3 (Homo sapiens, UniProt Q9UM47); assay: In vitro cytotoxicity (MTS), U2OS/hNotch3; type: cell-based; conditions: Table 14; LP = lacked potency
T1 construct: U-2 OS cells stably over-expressing human full length Notch3 protein on cell surface; expressed in transfected cells; host or cells: U-2 OS (human osteosarcoma)
T1 sequence (Q9UM47 40-2321): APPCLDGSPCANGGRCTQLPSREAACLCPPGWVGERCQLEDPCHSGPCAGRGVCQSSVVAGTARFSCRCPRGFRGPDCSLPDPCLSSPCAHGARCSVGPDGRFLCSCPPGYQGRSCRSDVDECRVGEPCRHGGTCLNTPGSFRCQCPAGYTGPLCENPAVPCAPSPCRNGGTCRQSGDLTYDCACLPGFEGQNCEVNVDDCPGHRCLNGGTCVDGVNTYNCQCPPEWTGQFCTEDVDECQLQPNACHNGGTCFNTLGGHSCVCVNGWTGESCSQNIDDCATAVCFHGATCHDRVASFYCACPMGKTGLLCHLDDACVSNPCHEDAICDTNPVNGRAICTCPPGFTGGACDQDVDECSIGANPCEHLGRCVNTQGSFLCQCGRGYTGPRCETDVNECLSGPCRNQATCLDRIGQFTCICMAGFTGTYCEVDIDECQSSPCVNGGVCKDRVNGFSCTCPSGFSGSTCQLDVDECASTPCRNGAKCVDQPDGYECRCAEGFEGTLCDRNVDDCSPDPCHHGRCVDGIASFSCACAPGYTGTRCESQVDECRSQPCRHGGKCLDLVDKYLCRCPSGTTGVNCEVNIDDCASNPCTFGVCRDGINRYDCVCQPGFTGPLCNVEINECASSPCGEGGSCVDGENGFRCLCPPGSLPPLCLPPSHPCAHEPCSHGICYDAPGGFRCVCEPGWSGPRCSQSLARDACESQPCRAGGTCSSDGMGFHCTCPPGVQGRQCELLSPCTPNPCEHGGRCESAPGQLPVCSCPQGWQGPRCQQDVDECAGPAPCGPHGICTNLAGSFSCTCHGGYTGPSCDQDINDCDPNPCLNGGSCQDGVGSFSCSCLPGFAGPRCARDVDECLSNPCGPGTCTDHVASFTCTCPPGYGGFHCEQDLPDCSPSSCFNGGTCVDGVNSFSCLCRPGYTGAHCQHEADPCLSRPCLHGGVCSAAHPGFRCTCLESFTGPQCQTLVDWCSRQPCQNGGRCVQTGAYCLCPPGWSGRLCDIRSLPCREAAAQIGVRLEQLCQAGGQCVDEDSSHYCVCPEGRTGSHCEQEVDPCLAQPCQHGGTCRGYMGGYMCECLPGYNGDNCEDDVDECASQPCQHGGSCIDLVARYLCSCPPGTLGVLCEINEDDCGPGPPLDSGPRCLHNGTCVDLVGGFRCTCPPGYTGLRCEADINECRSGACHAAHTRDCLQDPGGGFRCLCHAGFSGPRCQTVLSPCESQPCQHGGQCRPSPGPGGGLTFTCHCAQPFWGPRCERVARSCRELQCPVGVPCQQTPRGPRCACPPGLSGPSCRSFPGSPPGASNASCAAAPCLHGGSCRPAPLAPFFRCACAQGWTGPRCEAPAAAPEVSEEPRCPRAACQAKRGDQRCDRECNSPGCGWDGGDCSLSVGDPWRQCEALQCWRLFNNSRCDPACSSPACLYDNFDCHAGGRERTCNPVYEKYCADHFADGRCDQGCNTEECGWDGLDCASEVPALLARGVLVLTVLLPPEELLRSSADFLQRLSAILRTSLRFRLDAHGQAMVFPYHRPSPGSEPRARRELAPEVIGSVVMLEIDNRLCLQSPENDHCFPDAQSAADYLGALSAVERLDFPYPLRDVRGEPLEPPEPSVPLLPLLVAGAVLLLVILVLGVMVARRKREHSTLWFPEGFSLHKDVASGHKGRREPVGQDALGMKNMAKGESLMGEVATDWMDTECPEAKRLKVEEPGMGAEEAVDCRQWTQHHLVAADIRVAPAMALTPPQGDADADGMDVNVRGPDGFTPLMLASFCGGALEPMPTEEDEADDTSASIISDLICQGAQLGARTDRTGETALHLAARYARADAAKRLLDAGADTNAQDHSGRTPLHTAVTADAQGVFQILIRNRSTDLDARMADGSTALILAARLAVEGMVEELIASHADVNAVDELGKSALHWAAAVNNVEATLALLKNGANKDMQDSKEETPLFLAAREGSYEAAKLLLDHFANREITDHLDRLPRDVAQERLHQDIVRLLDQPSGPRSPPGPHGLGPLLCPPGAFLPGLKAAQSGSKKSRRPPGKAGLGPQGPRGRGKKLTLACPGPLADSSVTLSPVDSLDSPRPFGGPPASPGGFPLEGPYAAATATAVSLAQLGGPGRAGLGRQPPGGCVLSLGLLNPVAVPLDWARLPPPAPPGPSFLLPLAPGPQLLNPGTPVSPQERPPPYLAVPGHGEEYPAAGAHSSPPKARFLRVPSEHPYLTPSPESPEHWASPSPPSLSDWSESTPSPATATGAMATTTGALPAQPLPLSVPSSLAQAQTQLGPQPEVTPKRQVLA
Description: as §1

[1] = test system: OVCAR3 ovarian cancer cells; assay: Disruption of microtubules, immunofluorescence (anti-alpha-tubulin, phospho-Histone H3); type: cell-based, human; conditions: 1.0 μg/ml, forty-eight hours; FIG. 10
Description: Following internalization and intracellular release of the payload from the Notch3-ADC, the presumed mechanism of action of the released payload is disruption of microtubules that are required for cell division, thereby leading to cell cycle arrest, induction of apoptosis and cell death.
OVCAR3 cells were seeded in a Lab Tec II 4 chambered coverglass with cover #1.5 borosilicate sterile slides (Thermo Fisher Scientific Inc.). […] Forty-eight hours later, cells were washed twice with HBSS++ and fixed in 4% paraformaldyhide for 10 minutes. Cells were washed three times with PBS and permeabilized with 0.5% Triton X-100 for 2 minutes. After washing cells three times with PBS, cells were blocked with 3% BSA/PBS for 30 minutes at room temperature. Cells were then incubated with 1:100 of anti-phospho-Histone H3 (Ser10) (Cell Signaling) and 2 μg/ml of anti-alpha-Tubulin, (Millipore) in 2% BSA/PBS for 2 hours at room temperature. After 2 hours, cells were washed twice with PBS and then incubated with a 1:500 dilution of goat anti-mouse Alexa Fluor 488 and goat anti-rabbit 555 for 45 minutes at room temperature. Cells were washed twice with PBS and samples were imaged on an LSM710 confocal microscope (Zeiss).

[2] = test system: caspase-3/7 activity in HCC2429; assay: Caspase-Glo 3/7 apoptosis assay, HCC2429; type: cell-based, human; conditions: 1.1 μg/ml, 48 hours
Description: (§2) Caspase-3 and caspase-7 (caspase-3/7) proteases are key members of the programmed cell death machinery responsible for mediating late apoptotic events in mammalian cells. The activity of caspase-3/7 was measured in Notch3 expressing cell lines that were treated with Notch3-ADCs.
(§3) OVCAR3, HCC2429 and MDA-MB-468/hNotch3 cells were seeded onto opaque white tissue culture plates and incubated overnight. OVCAR3 and HCC2429 were treated at 1.1 μg/ml and MDA-MB-468/hNotch3 cells were treated 1 μg/ml of hu28-vc0101 and huNeg8.8-vc010 (control ADC). After 48 hours incubation, cells were treated with the Caspase-Glo 3/7 reagent (Promega #G8090) for 2 hours at room temperature. Luminescence was measured with a luminometer and following subtraction of background, values were reported as relative luminescence units.

[3] = test system: caspase-3/7 activity in OVCAR3; assay: Caspase-Glo 3/7 apoptosis assay, OVCAR3; type: cell-based, human; conditions: 1.1 μg/ml, 48 hours
Description: as §2, §3

Row | Molecule | IC50 (ng Ab/mL), HCC2429 (HCC2429 (lung cancer)) | IC50 (ng Ab/mL), U2OS/hNotch3 (U2OS/hNotch3) | effect on structure of the mitotic spindle apparatus [1] | Relative luminescence units (caspase-3/7) [2] | Relative luminescence units (caspase-3/7) [3]
1 | B1 | 473 ng Ab/mL and 2940 ng Ab/mL | 1330 ng Ab/mL | disrupted the structure of the mitotic spindle apparatus | 128,518 ± 3483 | 209,715 ± 15572
2 | B2 | 148 ng Ab/mL and 2050 ng Ab/mL | – | – | – | –
